Screen size: about 48,000 compounds; about 450 (0.94%) were called active. Another 19% or so got no clear call; they are omitted. Calls follow the shape of the dose curve; as a rule, active = well fitted inhibition curve with a large enough effect; inconclusive = small, poorly fitted or top-dose-only effect; inactive = no such curve, though single readings can be large or run the other way. The list shows a part of the results.
Assay: Primary qHTS for Identification of Small Molecule Inhibitors of Huntingtin Promoter Activity; also: nearly all actives have a fitted effect of over 50% in size
Details: HEK293 HTT promoter firefly luciferase reporter (activity 0% = vehicle and -100% = no light), 24 h; series mostly up to 57.5 µM; activity change, negative = inhibition: at the top concentration
Outline: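 HEK293 cells carrying firefly luciferase reporters were seeded at 2,500 per well in Opti-MEM and cultured for 24 h. They were then treated with compounds at up to 57.5 uM final for 24 h at 37 degrees C before Dual-Glo luminescence readout.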

Activity change, negative = inhibition, inactive:
COc1ccc(CCNC(=O)CCCCn2c(=O)c3ccccc3n(Cc3cc(C)ccc3C)c2=O)cc1OC -6.41%, CCOc1ccc(CNC(=O)c2ccc3c(c2)c(C)c(C)n3C)cc1 3.1%, CCCN(CCC)C(=O)Cn1c(=O)n(-c2ccc(OC)cc2OC)c(=O)c2c3c(sc21)CCC3 -12.1%, CCOc1ccc(-n2c(SCc3ccccc3)nc3c([nH]c4ccccc43)c2=O)cc1 -12.3%, CCCn1c2ccccc2c2cnn(CC(=O)NCC3CCN(Cc4ccc(C)cc4)CC3)c(=O)c21 -13.4%, Cc1ccc(NC(=O)Nc2nnc(SCC(=O)N3CCCCC3)s2)cc1 -15.2%, COc1cccc(N2CC(NC(=O)c3cc4ccccc4o3)CC2=O)c1 (stereo not given) -23.3%, CC(C)c1ccc2c(c1)NC(c1ccc(F)cc1)=NC(c1cccs1)=N2 -28.2%, Cc1nc2ncnn2c(C)c1CCC(=O)N1CCN(c2ccc(F)cc2)CC1 -0.563%, Cc1cccc(C(=O)NCCc2nc3ccccc3n2Cc2ccccc2Cl)c1 0.0337%, CCOC(=O)CCc1c(C)nc2c(-c3ccccc3)c(C)[nH]n2c1=O -10.8%, O=C(CSc1nnc(-c2ccncc2)n1-c1ccccc1)Nc1ccc(F)cc1 -14.2%, CCOc1ccccc1CNC(=O)CSc1n[nH]c(-c2ccccc2)n1 -28.7%, CC(C)c1noc(-c2ccccc2OCC(=O)Nc2ccc([N+](=O)[O-])cc2)n1 -8.22%, COc1ccc(OC)c(C2C(C(=O)Nc3ccc(C)cc3C)=C(C)Nc3c(C(=O)Nc4ccc(F)cc4)cnn32)c1 (stereo not given) 3.29%, CCn1c2c(c(=O)n3ncc(C(=O)N4CCN(c5ccccc5)CC4)c13)CN(Cc1ccc(OC)cc1)CC2 -27.2%, Cc1cc(=O)n(Cc2cccc(Cl)c2)c2c1c(C)nn2C 0%, Nc1ccc(O)cc1 12%, CCOC(=O)c1ccccc1NC(=O)c1cn(CC(C)C)c(=O)c2cc(OC)c(OC)cc12 -0.306%, COc1ccc(OC)c(-c2noc(CSc3nnc(-c4ccccc4)n3-c3ccccc3)n2)c1 -14.2%, Cc1ccc(OCC(=O)Nc2nnc(S(=O)(=O)N3CCc4ccccc43)s2)cc1 -9.46%, COc1ccc(N2CCN(S(=O)(=O)c3ccc(C4CCCCC4)cc3)CC2)cc1 -13.8%, CCCCN(CCCC)CCC(O)c1cc2c(Cl)cc(Cl)cc2c2cc(C(F)(F)F)ccc12 (stereo not given), COCCCNC(=O)CCCn1c(SCC(=O)c2ccc(F)cc2)nc2c(sc3ccccc32)c1=O -12.1%, COc1ccc(CNC(=O)CSc2ncc3c(n2)-c2ccc(Cl)cc2N(Cc2ccc(F)cc2)S3(=O)=O)cc1OC -14.5%, CCOC(=O)c1ccc(NC(=O)CSc2nnc3c4ccccc4n(CC)c3n2)cc1 0%, O=C(CSc1c2c(nc3ccccc13)CCC2)Nc1ccc(F)cc1 -12.6%, COc1ccc(Cn2c(C(=O)O)c(CNCc3ccco3)c3ccc(OC)cc32)cc1 -29.7%, COc1ccc(-n2cnc3cc(C(=O)NC4CCCC4)ccc32)cc1 -20.7%, CN(C)c1ccc(CNC(=O)c2ccc(Cn3c(=O)c4cccn4c4cccnc43)cc2)cc1 -7.75%, CCc1ccc2ncc(C(=O)c3ccc(C)c(C)c3)c(N3CCC(C(N)=O)CC3)c2c1 -16.4%, Cc1ccc(Cn2c(CNC(=O)CCc3ccccc3)nc3cccnc32)cc1 -3.78%, Cc1cccc(N2CCN(Cc3nnc(-c4ccccc4C)o3)CC2C)c1 (stereo not given) -28.5%, CCCOc1ccc(C(=O)N(Cc2ccccc2Cl)C2CCS(=O)(=O)C2)cc1 (stereo not given) -18.2%, COc1ccc(C2=Nc3ccc(F)cc3NC(c3cccc(C(F)(F)F)c3)=N2)cc1 -13.2%, COC(=O)c1ccccc1NC(=O)c1cnc(Nc2ccc(OC)cc2)c2ccccc12 -6.73%, CCCCOc1cccc(C(=O)N(Cc2ccc(N(C)C)cc2)C2CCS(=O)(=O)C2)c1 (stereo not given) -30.8%, Cc1cc(-c2nc3ncccc3o2)ccc1NC(=O)c1ccccc1Br 6.86%, O=C(COc1ccc(F)cc1)NCC(c1ccc(Cl)cc1)N1CCCCC1 (stereo not given) -29%, Cc1ccc(CCNC(=O)CCCn2c(=O)c3ccccc3n(Cc3ccccc3C)c2=O)cc1 -26.2%, COc1cc(OC)c(-c2cc(C(=O)NCc3ccc(F)cc3)c3c(-c4ccccc4)[nH]nc3n2)cc1OC -22.4%, COc1ccc(CCNC(=O)Cn2c(=O)n(-c3ccccc3)c(=O)c3c(C)c(C)sc32)cc1OC -16.9%, CC(=O)N1c2ccc(S(=O)(=O)N3CCCCCC3)cc2CC1C(=O)NCc1ccccc1C (stereo not given) -19.8%, COc1ccc(-n2nc(C(=O)N3CCN(c4ccccc4OC)CC3)c3c4ccccc4n(C)c3c2=O)cc1Cl 1.41%, COc1ccccc1CNC(=O)CCCN1C(=O)CSc2c1c(C)nn2-c1ccccc1 -2.02%, CC(=O)N1CCOc2cc(S(=O)(=O)NCc3ccc(F)cc3)c(C)cc21 10.5%, O=C(Nc1ccc2c(c1)CCCN2C(=O)c1cccs1)c1ccccc1 -17.5%, O=C(Cn1c(=O)n(Cc2ccccc2)c(=O)c2sc3ccccc3c21)Nc1ccccc1F -13.3%, O=C(NC1CCCc2ccccc21)c1ccc2c(c1)sc1nc(-c3ccccc3)cn12 (stereo not given) -4.69%, CC(C)C1N=C2c3ccccc3N=C(SCC(=O)NCc3ccc(Cl)cc3)N2C1=O (stereo not given) -22.9%, CCOc1ccccc1NC(=O)C1CCN(S(=O)(=O)c2cccs2)CC1 2.04%, CCOc1ccc(NC(=O)Cn2ccn3nc(-c4ccc(OC)c(OC)c4)cc3c2=O)cc1 11.6%, COc1cc(F)c(F)c(Nc2ccc(I)cc2F)c1NS(=O)(=O)C1(C[C@H](O)CO)CC1 -8.88%, Cc1cc(C)cc(NC(=O)Nc2ccc3nc(N4CCN(C)CC4)cc(C)c3c2)c1 4.2%, Cc1nc(N2CCCC2)c2c(C(=O)Nc3cccc(Cl)c3)c(C)oc2n1 -11.7%, CCCS(=O)(=O)c1nc(S(=O)(=O)c2ccc(C)cc2)c(NCc2ccccc2Cl)s1 -23.5%, CC1(C)CC(=O)c2cc(C#N)c(=O)n(-c3ccc(Cl)cc3)c2C1 14.7%, COc1ccc(NC(=O)Cn2cc(C(=O)c3ccccc3)c(=O)c3cc(OC)ccc32)c(OC)c1 5.9%, O=C(O)CCC(=O)Nc1sc2c(c1C(=O)Nc1ccccc1)CCCCC2 -0.535%, Cc1ccsc1CN(C(=O)c1ccc(OCC(C)C)cc1)C1CCS(=O)(=O)C1 (stereo not given) -25.9%
